Source: the supplement of paper PMC6135742
Structures can show the parent of a compound that is named as a salt. Over roughly 2,600 compounds, “total cell number (DAPI+ nuclei) relative to DMSO vehicle control” has its median near -1.4; the lowest 2% begin near -23. The list shows a part of the results.

Each molecule was assayed on jimpy (Plp1 jimpy) mouse iPSC-derived oligodendrocyte progenitor cells (assay: total cell number (DAPI+ nuclei) relative to DMSO vehicle control (SDs above negative control mean); higher = more surviving cells). Details: 10 µM; 3 days.

Going from `NCCc1c[nH]c2ccc(O)cc12` [Serotonin hydrochloride] to `COc1cc(C(O)CN)ccc1O` (racemic) [(±)-Normetanephrine hydrochloride], the total cell number rises from -2.26 to -1.67.

Going from `NCCc1c[nH]c2ccc(O)cc12` [Serotonin HCl] to `CCC1(c2cccc(O)c2)CCCCN(C)C1` (stereo not given) [Meptazinol HCl], the total cell number rises from -1.15 to -0.338.

Going from `C/C=C(\C)C(=O)N[C@@H](c1ccccc1)[C@@H](O)C(=O)O[C@H]1C[C@@]2(O)[C@@H](OC(=O)c3ccccc3)[C@@H]3[C@]4(OC(C)=O)CO[C@@H]4C[C@H](O)[C@@]3(C)C(=O)[C@H](OC(C)=O)C(=C1C)C2(C)C` [Cephalomannine] to `CC(=O)OC12COC1CC(O)C1(C)C(=O)C(O)C3=C(C)C(O)CC(O)(C(OC(=O)c4ccccc4)C21)C3(C)C` (stereo not given) [10-Deacetylbaccatin-III], the total cell number rises from -8.28 to -4.79.

First: CCC(COC(=O)c1cc(OC)c(OC)c(OC)c1)(c1ccccc1)N(C)C (stereo not given) [Trimebutine]
Second: COc1cc([C@@H]2c3cc4c(cc3[C@H](O)[C@H]3COC(=O)[C@H]23)OCO4)cc(OC)c1OC [Podophyllotoxin]
The total cell number of the first is higher: 1.99 for the first, -3.41 for the second.

Going from `CC[C@H]1CN2CCc3cc(OC)c(OC)cc3[C@@H]2C[C@@H]1C[C@H]1NCCc2cc(OC)c(OC)cc21` [Emetine dihydrochloride hydrate] to `CCCN1CCc2cc(O)cc3c2[C@H]1Cc1ccc(O)c(O)c1-3` [R(-)-2,10,11-Trihydroxy-N-propylnoraporphine hydrobromide], the total cell number rises from -10 to -3.99.

First: C[C@@H]1CC[C@H]2[C@@H](C)C(=O)O[C@@H]3O[C@@]4(C)CC[C@@H]1[C@]32OO4 [Artemisinin]
Second: C[C@]12CCC(=O)C(O)=C1CC[C@@H]1[C@@H]2CC[C@]2(C)C(=O)CC[C@@H]12 [Formestane]
The total cell number of the first is lower: -5.57 for the first, -1.25 for the second.

Going from `CS(=N)(=O)CC[C@H](N)C(=O)O` (stereo partly drawn) [L-Methionine sulfoximine] to `CC(=O)OCC1=C(C(=O)O)N2C(=O)[C@@H](N)[C@H]2SC1` [7-Aminocephalosporanic acid], the total cell number rises from -1.34 to 0.0421.

Compared with `C#C[C@]1(O)C=C[C@H]2[C@@H]3CCC4=CC(=O)CC[C@@H]4[C@H]3CC[C@@]21CC` [Gestodene], `CCN1CC2(OC(=O)c3ccccc3NC(C)=O)CCC(OC)C34C1C(CC23)C1(O)CC(OC)C2CC4C1(O)C2OC` (stereo not given) [Lappaconite HBr] is higher in total cell number: -1.69 for the first, -1.25 for the second.

Compared with `CN(c1nc2ccccc2s1)C1CCN(C[C@H](O)COc2ccc(F)c(F)c2)CC1` [Lubeluzole dihydrochloride], `CCOc1ccccc1-n1c(C(C)N2CCN(C(=O)COc3ccc(Cl)cc3)CC2)nc2ccccc2c1=O` (stereo not given) [Erastin] is lower in total cell number: 1.07 for the first, -3.85 for the second.

Going from `CC(C)(C)NCC(O)c1ccccc1Cl` (stereo not given) [Tulobuterol hydrochloride] to `CC(N)c1cccc(Cl)c1Cl` (racemic) [(±)-2,3-Dichloro-alpha-methylbenzylamine hydrochloride], the total cell number falls from -1.3 to -2.36.

First: CC1(C(=O)O)C2CCC(O2)C1(C)C(=O)O (stereo not given) [Cantharidic Acid]
Second: C=C(C)[C@@H]1[C@H]2OC(=O)[C@@H]1[C@]1(O)C[C@H]3OC34C(=O)O[C@H]2[C@@]41C.CC(C)(O)[C@@H]1[C@H]2OC(=O)[C@@H]1[C@]1(O)C[C@H]3OC34C(=O)O[C@H]2[C@@]41C (stereo not given in full) [Picrotoxin]
The total cell number of the first is lower: -11.3 for the first, -0.998 for the second.

Compared with `Cc1cccc([C@H](C)c2c[nH]cn2)c1C` [Dexmedetomidine], `CN(C)C(=O)Oc1cccc([N+](C)(C)C)c1` [Neostigmine bromide] is lower in total cell number: 0.763 for the first, -1.3 for the second.

Going from `C#CCN[C@H](C)Cc1ccccc1` [R-(-)-Desmethyldeprenyl hydrochloride] to `N#C[C@H](O[C@@H]1O[C@H](C(=O)O)[C@@H](O)[C@H](O)[C@H]1O)c1ccccc1` [Laetrile], the total cell number rises from -1.37 to 2.01.

First: CCCN(CCC)[C@@H]1CCc2cccc(O)c2C1 [R-(+)-8-Hydroxy-DPAT hydrobromide]
Second: c1ccc(C2CC2)c(OCC2=NCCN2)c1 [Cirazoline hydrochloride]
The total cell number of the first is higher: -1.25 for the first, -1.57 for the second.

First: CN1[C@@H]2CC[C@H]1C[C@@H](OC(c1ccccc1)c1ccccc1N)C2 (stereo not given in full) [Aminobenztropine]
Second: CN1[C@@H]2CC[C@H]1C[C@@H](OC(=O)C(CO)c1ccccc1)C2 (stereo not given in full) [Atropine sulfate]
The total cell number of the first is lower: -2.43 for the first, 0.385 for the second.

First: NCC(CP(=O)(O)O)c1ccc(Cl)cc1 (stereo not given) [Phaclofen]
Second: CNCC(O)c1ccc(O)cc1 (stereo not given) [Synephrine]
The total cell number of the first is higher: 0.0843 for the first, -0.603 for the second.

Compared with `CNCC(O)c1ccc(O)cc1` (stereo not given) [Synephrine HCl], `COc1ccc(C(CN(C)C)C2(O)CCCCC2)cc1` (stereo not given) [Venlafaxine] is higher in total cell number: -1.22 for the first, 0.0371 for the second.

Going from `C#CCOC(=O)C1=CCCN(C)C1` [Arecaidine propargyl ester hydrobromide] to `CN1[C@@H]2CC[C@H]1C[C@@H](OC(=O)C(CO)c1ccccc1)C2` (stereo not given in full) [Atropine], the total cell number falls from 0.578 to -3.8.

First: CCC1=C[C@H]2CN3CCc4c([nH]c5ccccc45)[C@](C(=O)OC)(C2)[C@H]13 [Catharanthine]
Second: CC(C)C[C@H]1C(=O)N2CCC[C@H]2[C@]2(O)O[C@](NC(=O)[C@@H]3C=C4c5cccc6[nH]c(Br)c(c56)C[C@H]4N(C)C3)(C(C)C)C(=O)N12 [(+)-Bromocriptine methanesulfonate]
The total cell number of the first is higher: -4.3 for the first, -4.38 for the second.

Compared with `Cc1sc2c(c1C)C(c1ccc(Cl)cc1)=N[C@@H](CC(=O)Nc1ccc(O)cc1)c1nnc(C)n1-2`, `CCc1c(C(=O)C(N)=O)c2c(OCC(=O)O)cccc2n1Cc1ccccc1` is higher in total cell number: -9.64 for the first, -0.34 for the second.

Compared with `COc1ccc(C(CN(C)C)C2(O)CCCCC2)cc1` (stereo not given) [Venlafaxine hydrochloride], `CN(C)C(=O)Oc1ccc[n+](C)c1` [Pyridostigmine Bromide] is higher in total cell number: -1.77 for the first, -0.116 for the second.

Compared with `CNC(=O)Oc1ccc2c(c1)[C@]1(C)CCN(C)[C@@H]1N2C` [(-)-Physostigmine], `CN(C)C(=O)Oc1ccc[n+](C)c1` [Pyridostigmine bromide] is higher in total cell number: -1.81 for the first, -0.334 for the second.

In the case of `CN1CCN(c2nc3ccccc3nc2Cl)CC1`, the total cell number is reported as -1.44.
